# Assay results: paper PMC4336329 (PLoS ONE, 2015)
# Screen size: about 310,000 compounds; about 14,000 (4.5%) showed an effect of 50% or more. The effect is printed as a negative number. The list shows a part of the results.
# Molecular target: human ether-à-go-go-related gene (hERG) potassium channel (human, UniProt Q12809)
# Experiment: primary screen, population patch clamp on CHO cells stably expressing hERG
# 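Note: peak tail current of the secondary pulse compared with the same well before compound.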
# Chain of human ether-à-go-go-related gene (hERG) potassium channel (Q12809 whole entry, looked up): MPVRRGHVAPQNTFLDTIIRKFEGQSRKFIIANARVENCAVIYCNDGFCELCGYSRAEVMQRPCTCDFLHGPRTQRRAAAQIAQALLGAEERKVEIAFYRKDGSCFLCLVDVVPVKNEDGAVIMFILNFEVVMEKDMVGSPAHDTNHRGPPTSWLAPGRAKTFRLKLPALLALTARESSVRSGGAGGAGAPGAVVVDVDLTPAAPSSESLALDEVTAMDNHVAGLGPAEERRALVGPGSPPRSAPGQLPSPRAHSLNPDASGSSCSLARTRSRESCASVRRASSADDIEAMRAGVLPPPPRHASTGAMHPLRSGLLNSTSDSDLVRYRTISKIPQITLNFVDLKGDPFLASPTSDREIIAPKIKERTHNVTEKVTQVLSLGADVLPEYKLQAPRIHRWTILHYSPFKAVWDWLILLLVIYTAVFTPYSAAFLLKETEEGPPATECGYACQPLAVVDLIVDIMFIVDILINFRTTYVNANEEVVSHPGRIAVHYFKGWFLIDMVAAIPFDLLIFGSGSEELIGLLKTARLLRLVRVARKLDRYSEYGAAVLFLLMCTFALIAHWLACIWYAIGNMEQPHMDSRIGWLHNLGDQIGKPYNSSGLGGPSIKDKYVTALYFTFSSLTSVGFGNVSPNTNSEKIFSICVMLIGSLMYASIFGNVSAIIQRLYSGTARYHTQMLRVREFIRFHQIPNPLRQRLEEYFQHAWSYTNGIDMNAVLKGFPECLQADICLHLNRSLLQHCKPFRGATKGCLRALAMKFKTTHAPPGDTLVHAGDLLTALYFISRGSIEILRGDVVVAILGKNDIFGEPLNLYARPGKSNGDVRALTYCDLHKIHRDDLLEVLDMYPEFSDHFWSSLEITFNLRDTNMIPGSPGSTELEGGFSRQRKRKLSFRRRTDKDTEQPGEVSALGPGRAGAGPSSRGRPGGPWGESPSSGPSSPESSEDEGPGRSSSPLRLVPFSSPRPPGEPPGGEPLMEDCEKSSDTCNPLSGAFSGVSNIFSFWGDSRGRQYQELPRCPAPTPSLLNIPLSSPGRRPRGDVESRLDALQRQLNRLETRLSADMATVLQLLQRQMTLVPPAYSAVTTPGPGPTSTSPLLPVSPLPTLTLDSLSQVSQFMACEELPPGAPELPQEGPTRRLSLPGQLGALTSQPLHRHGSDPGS
row,Compound,"hERG current change (%, negative = inhibition) at 10uM [%]"
1,Cc1cccc(Oc2coc3cc(OC(=O)c4cccs4)ccc3c2=O)c1,6.35
2,COCC(C)NC(=O)C1CC(c2cccc(Br)c2)=NO1 (centres unmarked),17.9
3,Cc1ccc(NC(=O)CN(C)C2CCCCC2)cc1Cl.O=C(O)C(=O)O,-7.7
4,Cc1noc(NC(=O)c2c(-c3c(Cl)cccc3Cl)noc2C)c1[N+](=O)[O-],2.58
5,CS(=O)(=O)N1CCN(c2ccnc3cc(Cl)ccc23)CC1,-78.6
6,COc1ccc(OC)c(-c2csc(NC(=O)CSc3nnnn3C)n2)c1,4.17
7,C/C(=N\O)C(C)(C)Nc1ccc(F)cc1,10.3
8,Cc1ncc([N+](=O)[O-])n1CC(=O)Nc1cccc(C(F)(F)F)c1,5.92
9,Cc1ccc2nc(C3CCN(C(=O)NCc4ccccc4)CC3)[nH]c2c1,-30
10,COC(=O)C1NN=C(C(=O)c2ccccc2)C1c1ccccc1 (centres unmarked),6.71
11,CCSc1cnn(-c2ccccc2)c(=O)c1Cl,6.67
12,CC(Cc1ccccc1)NC(=O)NC(C)Cc1ccccc1 (centres unmarked),7.17
13,CNC(=O)CSc1nc(SC)ns1,12.2
14,CN1C(=O)/C(=C/c2cccc([N+](=O)[O-])c2)C(=O)N1c1ccccc1,15
15,NS(=O)(=O)c1ccc2nc(NC(=O)CS(=O)(=O)c3ccc(F)cc3)sc2c1,22.4
16,C=CCNC(=O)c1ccc(Sc2ccccc2)c([N+](=O)[O-])c1,6.15
17,Cc1cc(N/N=C/c2ccccc2)nc(NCc2ccccc2)n1,-2.93
18,CCN1/C(=C/c2cc[n+](CCCS(=O)(=O)[O-])c3ccccc23)Sc2ccccc21,12.1
19,Nn1c(=S)[nH]c2sc3c(c2c1=O)CCCC3,20.4
20,CCOC(=O)N/N=C/c1c(F)c(F)c(F)c(F)c1F,11.8
21,CSc1nc2ccc(S(=O)(=O)N3CCCCC3)cc2s1,4.83
22,O=C(CSc1nc2ccccc2[nH]1)NCc1ccccc1,-1.37
23,O=C(Cc1ccccc1)N/N=C/c1cccnc1,20.3

row,Compound,"hERG current change (%, negative = inhibition) at 10uM [%]"
1,COc1ccc(CC2(CO)CCN(Cc3cc4ccccc4o3)CC2)cc1,-52.2
2,COc1ccc2[nH]c(=O)c(C(=O)O)cc2c1,23.8
3,COc1ccc2nc(/C=N/NC(=O)[C@@H]3CCCN3C(=O)OC(C)(C)C)ccc2c1,-7.92
4,Cc1cc(=O)[nH]c2c1c(C)nn2C1CCCC1,3.69
5,CCc1ccc(CN(C)CC(=O)Nc2ccc(S(=O)(=O)N3CCOCC3)cc2)cc1,-34.6
6,N#C/C(=C\c1c(N(Cc2ccccc2)Cc2ccccc2)nc2ccccn2c1=O)C(N)=O,-37.5
7,O=C(O)Cn1cnc2scc(-c3cccs3)c2c1=O,-1.57
8,COc1ccc(C(=O)OCC(=O)NCCN2C(=O)CSC2=O)cc1,-1.03
9,O=C(c1cccs1)N1CCN(c2ccc(Cl)cc2)CC1,-13.4
10,COc1ccc(C(=O)COC(=O)CNC(=O)c2ccccc2)cc1F,-26.5
11,COc1ccc(C(C)NC(=O)c2ccc([N+](=O)[O-])cc2)cc1OC (centres unmarked),-38.2
12,O=C(Cn1ncc2c(=O)oc3ccccc3c21)N1CCC(N2CCCCC2)CC1,-5
13,Cc1ccccc1NC(=O)Cc1cccc(C(F)(F)F)c1,0.766
14,NC(=O)C1CCC(NC(=O)OCc2ccccc2)CC1 (centres unmarked),9.94
15,CCNC(=S)N/N=C/c1ccc(C#N)cc1,8.67
16,C=CCn1c(SCC(=O)NCCC2=CCCCC2)nc2ccc(Cl)cc2c1=O,6.97
17,COc1ccc(Oc2cc(C)c3ccccc3n2)cc1,-0.541
18,CC(=O)OC1N=C(c2ccccc2)c2cc(Br)ccc2NC1=O (centres unmarked),-10.2
19,CC(NC(=O)CNC(=O)c1ccc2c(c1)OCO2)c1ccc(S(N)(=O)=O)cc1 (centres unmarked),0.985
20,Cc1ccccc1-n1nc2c(c1NC(=O)/C=C\c1ccc3c(c1)OCO3)CSC2,5.74
21,COc1cc(-c2c(C#N)c(N)nc3[nH]c(=S)[nH]c(=O)c23)ccc1O,26.7
22,Cc1ccc(SCC(=O)Nc2ccc3c(c2)OCCO3)cc1,-15.6
23,COc1ccc(/C=C/C(=O)C2(O)CCCCC2)cc1OC,4.84

row,Compound,"hERG current change (%, negative = inhibition) at 10uM [%]"
1,COCCN1CC(CNC(=O)c2cc(COc3ccc(C)c(C)c3)on2)CC1=O (centres unmarked),-20.8
2,Cc1cccc(C(=O)NCC(=O)NCC(c2ccco2)N2CCCCC2)c1 (centres unmarked),-11.3
3,CCN(CC(=O)Nc1ccc(NC(C)=O)cc1)C(=O)c1oc2ccccc2c1C,-20.2
4,Cn1c(=O)c2c(nc(N3CCNCC3)n2Cc2cccc3ccccc23)n(C)c1=O,-0.661
5,COC(=O)c1ccc(OC)c(CN2CCCN(Cc3cc(C)ccc3C)S2(=O)=O)c1,4.84
6,CCCCNC(=O)c1cc2c(C)cc(C)cc2[nH]1,13.6
7,CCC(C)(C(=O)NC1CCCCC1)N(CC1CCCO1)C(=O)CNC(=O)c1ccccc1 (centres unmarked),6.13
8,Cc1[nH]c(=O)[nH]c(=O)c1NC(=O)CSc1ncccc1-c1nc2ccccc2[nH]1,6.95
9,O=[N+]([O-])c1cccc2c1ccc1ncccc12,10.6
10,COc1cc(C(=O)NNC(=O)c2ccc3ccccc3n2)cc(OC)c1OC,10.5
11,COc1cccc(-c2noc(CCCC(=O)Nc3ccc(C(N)=O)cc3)n2)c1,7.66
12,CCn1c(CNC(C)=O)nnc1SCC(=O)c1ccc(Br)cc1,0.552
13,Cc1nc2ccccc2c(=O)n1-c1ccccc1C(F)(F)F,-0.613
14,COc1cc(OC)cc(C(=O)N2CCN(C(=O)Cc3ccccc3)CC2)c1,2.65
15,CCOC(=O)c1c(C)[nH]c(C)c1C(=O)COC(=O)c1cccnc1SC,-31.8
16,Cc1ccc(S(=O)(=O)Nc2ccc(S(=O)(=O)NC(C)(C)C)cc2)cc1,-18.5
17,CCCC(=O)NC(=S)Nc1cccc(C(C)=O)c1,1.17
18,O=C(O)C(Cc1ccccc1)N1C(=O)/C(=C/c2ccccc2)SC1=S (centres unmarked),-0.221
19,O=C(Cc1ccc(Cl)cc1)Nc1ccncc1,11.8
20,Cc1c(CN2CCC(C(=O)Nc3cccc(-c4cccc(Cl)c4)c3)CC2)cnn1C,-61.4
21,Brc1cccc(OCCn2ccnc2)c1.O=C(O)C(=O)O,-6.17
22,CCC(C)c1ccc(NC(=S)NN2CCOCC2)cc1 (centres unmarked),-8.96
23,CS(=O)(=O)N1CCC(Oc2ccccc2C(=O)NC2CCOC2)CC1 (centres unmarked),41.8

row,Compound,"hERG current change (%, negative = inhibition) at 10uM [%]"
1,O=C1CC(N2CCN(CCc3ccccn3)CC2)C(=O)N1c1ccc(Cl)cc1 (centres unmarked),-67.4
2,CSc1ccc(CN(C)CC(=O)NCc2ccccc2)cc1,-52.5
3,CCC(CC)c1nnc(NC(=O)CCc2ccccc2)s1,-3.19
4,O=C(c1cnccn1)N(Cc1cccs1)C1(C(=O)NC2CCCC2)CCCCC1,-10.5
5,N#CC(C#N)=CC1=C2OC(c3ccccc3)=CC(c3ccccc3)=C2CCC1,15
6,CN(C)c1ccc(C2N(C(=O)N3CCOCC3)CCN2S(=O)(=O)c2ccccc2)cc1 (centres unmarked),3.98
7,CC(C)(C)NC(=S)NCc1ccco1,8.96
8,Cc1nc2ccc(NS(=O)(=O)c3ccc(F)cc3)cc2s1,34.6
9,Cc1cccc(C)c1N(CC(=O)NCc1ccccc1)C(=O)c1csnn1,6.44
10,Cc1ccc(NC(=O)C2CCCCC2C(=O)O)cc1C (centres unmarked),-0.85
11,Nc1nc(COc2ccccc2)cs1,3.89
12,Cc1cccc(-n2c(CCc3ccccc3)nnc2SCC(=O)c2ccccc2)c1,-32.6
13,Cc1ccc(C)c(OCCn2c(=O)c3c(ncn3C3CCCC3)n(Cc3ccccc3)c2=O)c1,2.53
14,c1ccc(-c2cc(-c3ccccc3)ncn2)cc1,0.468
15,CC1CC(=O)N(CC(=O)NC2CCCCC2)c2ccccc2S1 (centres unmarked),-3.23
16,CCOc1cccc(-c2c(C(=O)N/N=C(\C)c3ccncc3)nnn2-c2nonc2N)c1,-43.6
17,CCOC(=O)c1cc(-c2ccc(OC(F)F)cc2)nc2nc(SC)[nH]c(=O)c12,-42.7
18,CCOc1cc(/C=C/C(=O)OCC(=O)NCCN2C(=O)CSC2=O)ccc1OCC(C)C,-2.31
19,C/C(=N\NC(=O)c1ccc(Cl)cc1)c1cccnc1,12.3
20,COC(=O)CCNc1ccc2c(c1)OCCO2,9.42
21,CCOC(=O)CCc1c(C)c(C#N)c2nc3ccccc3n2c1-n1cnc2ccccc21,-2.88
22,CN1CCN(c2ccc(C(F)(F)F)cc2NC(=O)c2ccco2)CC1,-54.5
23,CCOC(=O)c1sc(C)c2c(=O)n(Cc3ccc(Cl)cc3)cnc12,9.33
